In article PMC6919601, “Identification of Plasmodium dipeptidyl aminopeptidase allosteric inhibitors by high throughput screening” (PLoS ONE, 2019):
Where “and” joins values, the source holds several entries; their conditions need not be identical. Equal values may be shown once. In all, about 110,000 compounds went through this assay and about 230 (0.21%) showed an effect of 50% or more. The list shows a part of the results.

target: DPAP1 (Plasmodium falciparum, UniProt Q8IIJ9); experiment: primary screen, percent inhibition; read by cleavage of a fluorogenic dipeptide substrate; higher = more effect of the substance; design: species or system P. falciparum D10 trophozoite lysates; single well
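Also: 30 min substrate incubation versus DMSO and 10 µM JCP410 controls.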

Sequence of DPAP1 (Q8IIJ9 whole entry, looked up): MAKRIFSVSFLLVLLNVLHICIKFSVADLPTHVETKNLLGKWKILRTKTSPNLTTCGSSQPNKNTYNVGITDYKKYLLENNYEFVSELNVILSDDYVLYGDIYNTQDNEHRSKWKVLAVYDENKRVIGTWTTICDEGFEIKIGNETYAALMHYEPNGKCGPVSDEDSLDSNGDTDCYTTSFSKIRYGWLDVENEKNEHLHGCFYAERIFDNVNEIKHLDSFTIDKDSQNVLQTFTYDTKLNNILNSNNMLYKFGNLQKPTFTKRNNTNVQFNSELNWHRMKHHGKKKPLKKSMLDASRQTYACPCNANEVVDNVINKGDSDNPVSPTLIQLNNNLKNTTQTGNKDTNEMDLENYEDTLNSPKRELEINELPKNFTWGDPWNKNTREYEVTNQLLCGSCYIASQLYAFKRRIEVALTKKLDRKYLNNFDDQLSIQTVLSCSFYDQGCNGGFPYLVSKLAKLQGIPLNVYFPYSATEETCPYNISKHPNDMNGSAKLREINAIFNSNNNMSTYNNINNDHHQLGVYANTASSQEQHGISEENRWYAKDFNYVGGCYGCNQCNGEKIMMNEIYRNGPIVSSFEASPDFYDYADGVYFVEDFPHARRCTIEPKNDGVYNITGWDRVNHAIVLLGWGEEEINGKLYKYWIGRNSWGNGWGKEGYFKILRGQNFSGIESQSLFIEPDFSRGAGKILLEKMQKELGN

Compound | % Inhibition @ 10 uM
O=C(NC1CSCC1=O)c1ccccc1 (stereo not shown) | -1.15%
CCCC(=O)c1cc2cc(Br)cc(Br)c2oc1=O | -3.44%
CC1CC(C)CN(S(=O)(=O)c2ccc(NC(=O)c3ccccc3Cl)cc2)C1 (stereo not shown) | -4.74%
CN1CCN(C(=O)c2cc(Cl)ccc2NC(=O)c2ccc(Cl)cc2Cl)CC1 | -3.71%
COc1ccc(-c2[nH]nc3c2C2(C(=O)Nc4ccc(C)c(Br)c42)C(C#N)=C(N)O3)cc1 (stereo not shown) | 2.32%
Cc1ccc(-c2cc(C(=O)N3CCOCC3)c3ccccc3n2)cc1C | 7.39%
N#CCC(=O)NCCCOC(=O)Nc1ccc(Cl)c(Cl)c1 | -4.01%
COc1ccc(Cl)c(Cn2c(NCCO)nc3c2c(=O)n(C)c(=O)n3C)c1 | 0.248%
CCOc1ccc(-n2nc3ccc(NC(=O)c4ccc(Br)o4)cc3n2)cc1 | 2.09%
CS(=O)(=NS(=O)(=O)c1ccccc1)c1ccccc1 (stereo not shown) | 3.05%
CN(C)c1ccc(CN2CCN(C/C=C/c3ccccc3)CC2)cc1 | -5.61%
COc1ccc2ccccc2c1C1CC(=O)N2CN(C3CCCCC3)CSC2=C1C#N (stereo not shown) | 26.9%
CCN(c1ccccc1)S(=O)(=O)c1ccc(NC(=O)c2ccccc2C)cc1 | 2.01%
CCOC(=O)C1=C(C)N(C)C(=S)NC1c1ccc(OCc2ccccc2)c(OCC)c1 (stereo not shown) | -0.339%
O=C(C(Cc1ccccc1)N1C(=O)C2CCCCC2C1=O)N1CCN=C1c1ccccc1 (stereo not shown) | 4.83%
CC(=O)N1CC2(C)CN(C(C)=O)CC(C)(C1)C2 | -3.49%
COc1ccc2c(c1OC)C(=O)OC2Nc1cccc(C)n1 (stereo not shown) | -4.93%
CNC(=O)CN(c1ccc(F)cc1)S(=O)(=O)c1ccc(OC)c(OC)c1 | 5.99%
Cn1c(=O)c2c(nc(NCCN)n2Cc2ccc(Cl)cc2)n(C)c1=O | -1.5%
O=C(CSCCO)Nc1ccc(C23C[C@H]4C[C@@H](C2)C[C@@H](C3)C4)cc1 | 5.31%
CCN(CC)S(=O)(=O)C1CCS(=O)(=O)C1 (stereo not shown) | -2.62%
COc1ccc(OC)c(NS(=O)(=O)c2ccc(Br)cc2)c1 | -5.01%

Compound | % Inhibition @ 10 uM
CCOC(=O)N1CCC(Nc2cc(C)nc3c(-c4ccccc4OC)c(C)nn23)CC1 | -6.91%
CCC(Oc1ccccc1)C(=O)Nc1sc2c(c1C(N)=O)CCCC2 (stereo not shown) | -3.26%
Cc1cc(NC(=O)c2ccc3c(c2)C(=O)N(Cc2ccccc2)C3=O)no1 | -3.96%
O=C(O)c1ccccc1C(=O)Nc1ccc2c(c1)OCO2 | 3.58%
COc1cc(C(=O)N(Cc2cccc(Cl)c2)C2CCS(=O)(=O)C2)cc(OC)c1OC (stereo not shown) | -1.18%
O=C(Nc1nc(-c2ccc(F)cc2F)cs1)c1cccs1 | -5.06%
CCOc1ncnc2c1[nH]c1ccc(F)cc12 | 4.7%
Cc1c(C)c(COc2cccc3cccnc23)c(C)c(C)c1Br | 2.22%
Clc1ccc2nncn2n1 | 4.01%
CC(C)CNS(=O)(=O)c1ccccc1C(=O)N1CCCCC1 | -3.27%
O=C(Cn1nnc2sc(-c3ccccc3)cc2c1=O)NCc1ccccc1 | 4%
CCOC(=O)C1CCCN(Cc2ccc(N(C)C)cc2)C1 (stereo not shown) | -0.0404%
Cc1ccc(NC(=O)C2CC(O)CN2C(=O)OCc2ccccc2)c(C)c1 (stereo not shown) | -3.69%
COc1cc(C=C2C(=O)NC(=O)NC2=O)ccc1OCc1ccc(C(=O)O)cc1 | 10.5%
CCOc1ccc(N2C(=O)CC(NCCc3cccc(OC)c3)C2=O)cc1 (stereo not shown) | 5.94%
O=C1CC(N2CCC(Cc3ccccc3)CC2)C(=O)N1c1ccc(F)cc1 (stereo not shown) | 4.32%
N#Cc1ccccc1NC(=O)c1cc(Cl)ccc1Cl | -2.96%
CN1CCCN(Cc2ccccc2[N+](=O)[O-])CC1 | -5.57%
CCn1c(C(=O)NCc2ccccn2)cc2oc3ccccc3c21 | -3.96%
Brc1ccccc1CN1CCN(c2ccccc2)CC1 | -3.56%
COc1cc(OC)c(CN(C)C2CCN(C)CC2)cc1Br | -4.61%
CCC(C(=O)NCCc1ccc(S(N)(=O)=O)cc1)n1nc(C)c2sc3ccccc3c2c1=O (stereo not shown) | 1.46%

Compound | % Inhibition @ 10 uM
Cc1[nH]c(=O)[nH]c(=O)c1/C=C/C(=O)O | -9.33% and -3.64%
CCCn1c(C(C)NC(=O)c2ccc(F)cc2)nc2ccccc21 (stereo not shown) | 12.7%
Oc1ccc(-c2csc(Nc3ccccn3)n2)cc1O | 0.627%
COc1cc(OC)cc(C(=O)Nc2c(C)nn(-c3ccccc3)c2C)c1 | 1.86%
CCOC(=O)C1CCN(Cc2cc(Br)ccc2OC)CC1 | -0.294%
O=C(Nc1ccccc1)c1cc2ccccc2c(=O)s1 | 0.343%
CCCCc1c(C)nc2ccc(OC)cc2c1Cl | 1.27%
COc1ccc(C2C(C#N)C(=O)NC(=O)C2[n+]2ccccc2)cc1 (stereo not shown) | -2.86%
CCc1[nH]nc2c1C(c1ccc(O)cc1)C(C#N)=C(N)O2 (stereo not shown) | -2.53%
CCOC(=O)c1[nH]c2ccccc2c1NC(=O)c1ccc(C(C)(C)C)cc1 | 4.14%
COc1cc(C2C(C#N)=C(N)Oc3[nH]nc(C)c32)ccc1OCc1cccc(F)c1 (stereo not shown) | 0.746%
Cc1ccnc(NC(=O)c2c(-c3ccccc3Cl)noc2C)c1 | 2.93%
Oc1ccc(-c2nc3ccc4ccccc4c3c3c2CCCC3)c(O)c1 | 4.63%
CCCN1CCC(N2CCCC(C(=O)N(C)CCc3ccc(OC)c(OC)c3)C2)CC1 (stereo not shown) | 5.44%
COc1ccc2c(C)c(CC(=O)NCc3ccco3)c(=O)oc2c1OC | -0.808%
O=C(CCn1nc(-c2ccc(Cl)cc2)c2ccccc2c1=O)N1CCN(Cc2ccccc2)CC1 | -1.17%
CCC(CC)CC(NC(=O)OCc1ccccc1)C(=O)NCC#N (stereo not shown) | -1.41%
Cc1ccc(-c2nnc(C3CCN(S(=O)(=O)c4ccc(C(C)(C)C)cc4)CC3)o2)cc1 | 8.53%
COc1ccc(-c2noc(CSc3nnc(-c4ccncc4)n3-c3ccccc3)n2)cc1OC | -0.45%
CCO/C(O)=C1\Sc2ccccc2N=C1C | -5.62%
